Test results published in publication PMC7347845.
These are yes or no findings as the source states them, for the method shown. Binding seen in cells or lysates may run through a third protein. Some results given as binding are weak or reduced against the parent protein; the word gives no strength. For part of these data: Tags and fused reporters may be left off the sequences shown.

Chains of the proteins cited; added tags and fusions are not shown. Lines headed by an entry give the natural chain unless they say otherwise; changes in a name come on top.
UniProt Q9UJA3: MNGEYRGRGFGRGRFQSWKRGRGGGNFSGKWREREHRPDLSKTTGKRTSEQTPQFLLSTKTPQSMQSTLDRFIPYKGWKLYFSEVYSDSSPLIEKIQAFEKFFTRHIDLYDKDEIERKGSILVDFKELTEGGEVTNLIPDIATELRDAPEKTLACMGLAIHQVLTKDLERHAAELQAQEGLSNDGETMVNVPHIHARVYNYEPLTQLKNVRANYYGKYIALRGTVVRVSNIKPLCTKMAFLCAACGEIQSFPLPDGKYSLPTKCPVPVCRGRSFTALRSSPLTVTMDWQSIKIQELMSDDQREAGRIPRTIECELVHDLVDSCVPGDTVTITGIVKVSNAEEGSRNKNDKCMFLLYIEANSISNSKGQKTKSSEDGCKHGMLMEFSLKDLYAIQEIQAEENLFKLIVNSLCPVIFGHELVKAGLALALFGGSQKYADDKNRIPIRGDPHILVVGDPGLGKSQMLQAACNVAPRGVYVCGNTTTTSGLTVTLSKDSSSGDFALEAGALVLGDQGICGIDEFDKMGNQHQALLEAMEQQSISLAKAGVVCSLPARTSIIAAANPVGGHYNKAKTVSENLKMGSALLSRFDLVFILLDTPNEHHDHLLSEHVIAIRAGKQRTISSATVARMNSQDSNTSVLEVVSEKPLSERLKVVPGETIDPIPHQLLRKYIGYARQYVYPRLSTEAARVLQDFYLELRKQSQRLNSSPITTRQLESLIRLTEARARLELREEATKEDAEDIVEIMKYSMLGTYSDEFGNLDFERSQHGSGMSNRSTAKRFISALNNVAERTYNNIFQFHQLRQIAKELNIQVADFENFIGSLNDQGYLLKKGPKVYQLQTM
UniProt Q9NXL9: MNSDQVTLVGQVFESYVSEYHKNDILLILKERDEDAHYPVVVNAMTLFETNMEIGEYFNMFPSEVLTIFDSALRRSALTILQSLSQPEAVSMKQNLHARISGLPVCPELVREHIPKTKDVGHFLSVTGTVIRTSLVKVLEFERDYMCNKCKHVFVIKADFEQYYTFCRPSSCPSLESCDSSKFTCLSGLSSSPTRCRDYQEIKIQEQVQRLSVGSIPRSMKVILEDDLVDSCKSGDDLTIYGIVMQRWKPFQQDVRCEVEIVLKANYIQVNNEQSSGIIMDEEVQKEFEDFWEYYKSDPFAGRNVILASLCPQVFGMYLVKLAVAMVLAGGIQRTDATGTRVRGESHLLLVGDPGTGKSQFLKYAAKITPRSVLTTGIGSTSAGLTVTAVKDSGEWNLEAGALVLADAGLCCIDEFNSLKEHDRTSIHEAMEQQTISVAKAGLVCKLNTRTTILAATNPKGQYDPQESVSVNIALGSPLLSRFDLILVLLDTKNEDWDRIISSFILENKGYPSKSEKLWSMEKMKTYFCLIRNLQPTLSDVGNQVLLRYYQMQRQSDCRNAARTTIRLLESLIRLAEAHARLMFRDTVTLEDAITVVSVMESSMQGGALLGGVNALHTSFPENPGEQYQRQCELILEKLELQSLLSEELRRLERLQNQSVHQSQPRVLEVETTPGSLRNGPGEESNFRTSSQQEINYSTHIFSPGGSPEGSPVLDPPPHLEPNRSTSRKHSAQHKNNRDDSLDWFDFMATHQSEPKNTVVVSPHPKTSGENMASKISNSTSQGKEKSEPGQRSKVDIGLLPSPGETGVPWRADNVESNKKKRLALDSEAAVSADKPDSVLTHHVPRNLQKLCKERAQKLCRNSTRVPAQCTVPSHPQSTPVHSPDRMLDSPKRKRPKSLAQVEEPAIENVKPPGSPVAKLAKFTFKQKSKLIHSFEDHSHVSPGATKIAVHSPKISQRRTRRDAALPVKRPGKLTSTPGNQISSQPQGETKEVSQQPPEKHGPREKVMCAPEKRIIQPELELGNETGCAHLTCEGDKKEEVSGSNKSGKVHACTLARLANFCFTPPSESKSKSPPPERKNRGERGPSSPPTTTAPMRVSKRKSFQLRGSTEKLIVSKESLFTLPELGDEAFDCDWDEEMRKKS

Key:
[1] = target: T1, endogenous HORMAD1 (MDAH2774 cells) (human (endogenous in MDAH2774)) (UniProt Q86X24); assay: co-IP; endogenous HORMAD1 and MCM8–MCM9 complex in MDAH2774 cells with or without stably expressed HA-MCM9 HIM
T1 sequence: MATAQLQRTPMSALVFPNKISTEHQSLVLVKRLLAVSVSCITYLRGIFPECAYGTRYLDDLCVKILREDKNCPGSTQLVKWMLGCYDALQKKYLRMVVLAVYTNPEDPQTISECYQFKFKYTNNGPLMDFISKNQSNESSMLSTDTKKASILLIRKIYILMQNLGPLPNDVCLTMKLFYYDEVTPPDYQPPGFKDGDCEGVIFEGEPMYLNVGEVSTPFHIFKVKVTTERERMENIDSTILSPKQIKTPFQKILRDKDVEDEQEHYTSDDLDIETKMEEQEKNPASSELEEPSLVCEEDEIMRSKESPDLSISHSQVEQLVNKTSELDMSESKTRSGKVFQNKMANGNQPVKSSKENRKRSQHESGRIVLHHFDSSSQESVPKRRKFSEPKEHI

[2] = target: T1, endogenous HORMAD1 (MDAH2774 cells) (human (endogenous in MDAH2774)); assay: co-IP; reciprocal co-IP of endogenous proteins with indicated antibodies in WT and HORMAD1 KO MDAH2774 cells; whole cell lysate and nuclear extract
[3] = target: T1, endogenous HORMAD1 (MDAH2774 cells) (human (endogenous in MDAH2774)); assay: condition: only in MDAH2774 cells stably expressing the competitor HA-MCM9 HIM; co-IP; endogenous HORMAD1 and MCM8–MCM9 complex in MDAH2774 cells with or without stably expressed HA-MCM9 HIM
[4] = target: T2, S-Flag-streptavidin binding protein (SFB)-tagged HORMAD1 (human (cDNA from MDAH2774 cells)) (UniProt Q86X24); assay: co-IP; SFB-tagged HORMAD1 (WT or deletion mutant) and HA-tagged MCM8, MCM9 or MCM9 HIM in 293T cells; lysis in NETN300, streptavidin-conjugated beads or antibodies with protein A sepharose 2 h at 4 °C, washes in NETN100, western blotting
T2 sequence: T1 sequence

[5] = target: T3, SFB-tagged HORMAD1ΔC (Δ237–394 amino acids) (human (cDNA from MDAH2774 cells)) (UniProt Q86X24); assay: as above
T3 sequence: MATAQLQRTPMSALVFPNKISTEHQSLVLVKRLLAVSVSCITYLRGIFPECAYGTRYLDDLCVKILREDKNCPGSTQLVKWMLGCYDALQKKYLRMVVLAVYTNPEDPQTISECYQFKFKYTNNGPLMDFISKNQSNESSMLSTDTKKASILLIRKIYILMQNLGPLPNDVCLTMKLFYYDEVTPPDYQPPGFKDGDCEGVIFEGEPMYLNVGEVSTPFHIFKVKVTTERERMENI

Row | Substance | binding [1] | binding [2] | binding [3] | binding [4] | binding [5]
1 | endogenous MCM8 (MDAH2774 cells) (from UniProt Q9UJA3 1-840) | binds | binds | no binding |  | 
2 | HA-MCM9 HIM stably expressed in MDAH2774 cells (from UniProt Q9NXL9 703-766) (domain or fragment) | binds |  |  |  | 
3 | endogenous MCM9 (MDAH2774 cells) (from UniProt Q9NXL9 1-1143) | binds | binds | no binding |  | 

Now from value to substance:

Row | binding [1] | binding [2] | binding [3] | binding [4] | binding [5] | Substance
4 |  |  |  | binds |  | MCM9 HIM (HORMAD1-interacting motif, amino acids 703–766), in 293T cells (from UniProt Q9NXL9 703-766) (domain or fragment)
5 |  |  |  | binds | binds | HA-tagged MCM8 (from UniProt Q9UJA3 1-840)
6 |  |  |  | binds | binds | HA-tagged MCM9 (from UniProt Q9NXL9 1-1143)
